The results in this text go back to patent publication US20160152725A1 (Memorial Sloan Kettering, published 2016).

This assay concerns the target T1, biotinylated HLA-A2/WT1126 (…) monomer (human, biotin at a specific biotinylation site at the C-terminus).
T1 construct: also called HLA-A2-WT1 monomer; WT1126/HLA-A2
The assay is described as follows: SPR Biacore T100; biotinylated pMHC captured, antibody injected; 1:1 fit; bivalent, apparent affinity. Background: Surface plasmon resonance follows binding to a sensor surface in real time, without labels.

B1: Q2L scFv-Fc fusion protein (Fc fusion)
chain: EVQLLESGGGLVQPGGSLRLSCAASGFTFSSYAMSWVRQAPGKGLEWVSLIDPWGQETLYADSVKGRFTISRDNSKNTLYLQMNSLRAEDTAVYYCAKLTGRFDYWGQGTLVTVSSGGGGSGGGGSGGGGSTDIQMTQSPSSLSASVGDRVTITCRASQSISSYLNWYQQKPGKAPKLLIYSASLLQSGVPSRFSGSGSGTDFTLTISSLQPEDFATYYCQQGPGTPNTFGQGTKVEIKRKGP[human IgG1 Fc not given here]
notes: also called Q21
Take B1: the Kd was determined as 2 pM.
